# According to article PMC4336329 (PLoS ONE, 2015):
# About 2,200 (0.71%) of roughly 310,000 compounds showed an effect of 50% or more. The effect is printed as a negative number. Some of the results follow.
# Biological target: human ether-à-go-go-related gene (hERG) potassium channel (human, UniProt Q12809)
# Assay: primary screen, population patch clamp on CHO cells stably expressing hERG
# Chain of human ether-à-go-go-related gene (hERG) potassium channel (Q12809 whole entry, looked up): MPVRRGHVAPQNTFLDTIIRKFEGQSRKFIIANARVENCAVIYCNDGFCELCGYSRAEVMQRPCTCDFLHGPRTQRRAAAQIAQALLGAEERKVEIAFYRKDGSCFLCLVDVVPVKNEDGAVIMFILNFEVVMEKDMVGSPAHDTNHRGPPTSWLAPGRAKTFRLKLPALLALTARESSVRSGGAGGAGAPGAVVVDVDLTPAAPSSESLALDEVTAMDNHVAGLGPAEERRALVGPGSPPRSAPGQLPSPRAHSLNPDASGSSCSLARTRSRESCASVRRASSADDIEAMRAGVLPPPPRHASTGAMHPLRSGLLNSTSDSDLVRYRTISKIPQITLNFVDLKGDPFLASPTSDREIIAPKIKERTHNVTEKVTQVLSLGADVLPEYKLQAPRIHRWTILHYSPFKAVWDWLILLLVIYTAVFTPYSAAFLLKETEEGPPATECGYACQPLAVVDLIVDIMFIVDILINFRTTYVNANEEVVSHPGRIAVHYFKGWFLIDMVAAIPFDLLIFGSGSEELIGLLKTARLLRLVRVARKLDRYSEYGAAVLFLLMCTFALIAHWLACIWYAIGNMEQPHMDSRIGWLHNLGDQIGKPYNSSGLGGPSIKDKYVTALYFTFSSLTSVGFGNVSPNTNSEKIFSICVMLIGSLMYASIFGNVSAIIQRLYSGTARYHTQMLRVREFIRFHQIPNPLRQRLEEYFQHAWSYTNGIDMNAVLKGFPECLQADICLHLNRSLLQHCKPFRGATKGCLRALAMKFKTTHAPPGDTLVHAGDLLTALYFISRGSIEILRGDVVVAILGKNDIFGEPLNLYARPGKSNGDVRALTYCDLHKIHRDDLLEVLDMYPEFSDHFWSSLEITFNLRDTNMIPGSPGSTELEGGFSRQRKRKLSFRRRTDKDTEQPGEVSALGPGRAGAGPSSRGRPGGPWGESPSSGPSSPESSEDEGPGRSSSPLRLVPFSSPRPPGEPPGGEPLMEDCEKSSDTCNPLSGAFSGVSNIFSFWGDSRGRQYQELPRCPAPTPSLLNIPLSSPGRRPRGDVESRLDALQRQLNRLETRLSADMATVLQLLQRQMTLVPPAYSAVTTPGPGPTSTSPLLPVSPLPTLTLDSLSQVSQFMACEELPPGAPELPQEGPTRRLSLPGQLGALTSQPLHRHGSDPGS
row,SMILES,"hERG current change (%, negative = inhibition) at 1uM [%]"
1,Nc1nc(Br)c2ccccc2c1-c1ccccc1,9.58
2,O=C(Nc1ccccc1)c1ccccc1NC(=O)c1ccccc1[N+](=O)[O-],11
3,CCCOc1ccccc1C1CC(=O)NC(C)=C1C(=O)OCC(C)C (stereo not shown),-1.64
4,Cc1ccc(-c2ccc(SCC(=O)NC3CCCCC3)nn2)cc1,7.43
5,COc1ccc(N2CCCn3c2nc2c3c(=O)n(CCN3CCOCC3)c(=O)n2C)cc1,2.51
6,CC(=O)Nc1cccc(NC(=S)Nc2cccc3ccccc23)c1,12.7
7,O=C(c1ccc(C(F)(F)F)cc1)C1CCCN(C(=O)CCn2cncn2)C1 (stereo not shown),-12
8,CC1CN(c2ccc([N+](=O)[O-])cc2F)CCN1C(=O)c1ccco1 (stereo not shown),-40.2
9,Cc1cc(C)n(CC(=O)NC2CCCc3c2cnn3-c2ccccc2F)n1 (stereo not shown),7.86
10,CCC(=O)N1CCN(C(=O)c2ccccc2)CC1,11.8
11,COc1ccccc1OCC(=O)Nc1cc(Cl)ccc1Oc1ccccc1,2.43
12,O=C(CNCC1CCCO1)Nc1ccccc1N1CCCCCC1.O=C(O)C(=O)O (stereo not shown),13
13,CC(C)(C)OC(=O)CC[C@@H](C(=O)NCCCCCCCCCCC(=O)N1CCN(C(=O)OC(C)(C)C)CC1)n1cc(CCCCCNC(=O)OC(C)(C)C)nn1,4.64
14,CSCCC(NS(=O)(=O)c1ccc2c(c1)c(=O)n(C)c(=O)n2C)C(=O)NC1CCN(Cc2ccccc2)CC1 (stereo not shown),18.2
15,CC(=O)Nc1ccc(NC(=O)c2ccc(CSc3ccccc3)o2)cc1,6.49
16,O=C(O)Cn1cc(/C=C/[N+](=O)[O-])c2ccccc21,4.59
17,CC(=O)c1c(O)cc(=O)n(-c2ccccc2)c1-c1ccc(Cl)cc1,15.4
18,CC(=O)Nc1ccc(/C(C)=N/Nc2nc(Nc3ccccc3)nc(N3CCOCC3)n2)cc1,11.4
19,CCCc1cc(=O)[nH]c(SCC(=O)N2CCc3ccccc3C2)n1,10.4
20,Cc1noc(C)c1S(=O)(=O)N1CCC(C(=O)Nc2ccc(Br)cc2)CC1,11.1
21,COc1ccc(CN2C(=O)CN=C2Nc2cccc(C)c2C)cc1.Cl,-6.02
22,COC(=O)Cc1cc(=O)n2[nH]c(C(F)(F)F)nc2n1,5.48

row,SMILES,"hERG current change (%, negative = inhibition) at 1uM [%]"
1,COc1ccc(NC(=O)Cn2cc(C(=O)c3ccco3)c3ccccc32)cc1,2.53
2,Cc1ccc2nc(-c3cccc(Br)c3)cc(C(=O)Nn3cnnc3)c2c1,9.54
3,Cc1cc(C)n(CCNc2nc3nonc3nc2N2CCCCC2)n1,6.4
4,CC(C)COC(=O)CCn1[nH]c(=O)c2ccccc2c1=O,5.67
5,O=C(CSCc1ccc(Cl)cc1)N/N=C/c1ccco1,11.7
6,Cc1ccc2cc(C#N)c(NCCNC(=O)C3CC3)nc2c1C,9.04
7,O=C(c1ccc(-c2ccccc2)cc1)C1CCCN(C(=O)c2cncs2)C1 (stereo not shown),3.61
8,CCc1nc(SCC(=O)NCCc2ccccc2)n[nH]1,1.78
9,O=C(CSc1ccc2nnc(-c3ccccn3)n2n1)NCc1ccc2c(c1)OCO2,-65.8
10,CCCCC(=O)NCCc1ccc(OC)cc1,11.6
11,C=CCOC(=O)C1=C(C)OC(N)=C(C#N)C1c1ccc2c(c1)OCO2 (stereo not shown),13.4
12,CN=C1C=C/C(=N/N=c2\ccn(O)cc2C)C=C1C,-1.51
13,O=C(CN1C(=O)c2cccnc2C1=O)c1ccccc1,3.26
14,COc1ccc(-n2nnnc2SCC(=O)Nc2ccccc2)cc1,15.7
15,CCCNC(=O)c1ccc(C2SCC(=O)N2CCc2ccccc2)cc1 (stereo not shown),5.43
16,Cc1noc(C)c1C(=O)Nc1ccc(-c2nnc3n2CCCCC3)cc1,11.5
17,COc1cc(/C=N/NC(=O)c2c(C)nc3ccc(Cl)cn23)cc(OC)c1OC,13.6
18,COc1cc(COc2ccc3c(C)c(Cc4ccccc4)c(=O)oc3c2)cc(OC)c1OC,-16.1
19,COCCCNCC(O)COc1ccccc1F (stereo not shown),11.4
20,O=C(Cc1ccccc1)Nc1ccccc1C(=O)Nc1ccc(C(=O)O)cc1,13.2
21,Cc1cccc(CNc2ccc(S(=O)(=O)N3CCCCC3)cc2)c1,-0.0701
22,CCOC(=O)C1(CC)NC(c2ccc(OC)cc2OC)C2C(=O)N(C)C(=O)C21 (stereo not shown),2.87

row,SMILES,"hERG current change (%, negative = inhibition) at 1uM [%]"
1,CCn1cnc2scc(-c3ccc(C)c(C)c3)c2c1=O,-1.44
2,CCC(O)CNC(=O)CCc1nnc(C2(c3ccc(Cl)cc3)CCC2)o1 (stereo not shown),9.59
3,Cc1nc2c(ccc3nc(NC(=O)C4CC4)sc32)s1,6.36
4,Clc1ccc(C[n+]2csc3ccccc32)cc1.[Br-],3.46
5,O=C(COC(=O)CCc1nc2ccccc2c(=O)[nH]1)Nc1ccccc1Cl,11.3
6,COc1ccc(OC)c2sc(NC(=O)c3ccc(Cl)s3)nc12,9.34
7,CC(CNC(=O)CN1C(=O)CCSc2ccccc21)c1ccccc1 (stereo not shown),14.6
8,CCOC(=O)C1CCN(C(=O)CSc2cc(=O)n(CC)c3ccccc23)CC1,5.03
9,CCCCc1cc(=O)oc2cc(OCC(=O)N3CCC(C(=O)O)(c4ccccc4)CC3)ccc12,-4.58
10,CC(=O)N1c2ccccc2NC2=C(C(=O)CCC2)C1c1ccco1 (stereo not shown),4.1
11,Nc1nc(-c2ccccc2)nn1C(=O)c1ccco1,14.2
12,Cc1c2n(c3ccccc13)CCN(C)C2,14.6
13,C=CCn1c(O)c(C=Nc2ccc(OC)cc2C)c(=O)[nH]c1=O,12.1
14,CCOC(=O)c1ccc2[nH]c3c(c2c1)CCCC3,7.28
15,O=S(=O)(c1ccc(OC(F)(F)F)cc1)N1CCCC(c2ccccc2)C1 (stereo not shown),11.9
16,O=C(c1ccc(C(=O)N2CCN(c3ccccc3F)CC2)nc1)N1CCN(c2ccccc2F)CC1,9.04
17,CCN1/C(=C2/SC(=S)N(C)C2=O)C=Cc2cc(C)ccc21,0.0036
18,Cl.OCCNCc1cccc(Br)c1,2.6
19,COC(=O)CNC(=O)C(C)(C)Oc1ccc(Cl)cc1,11.2
20,COC(=O)[C@@H]1C[C@@]2(O)[C@H](O)[C@H](O)[C@H](O)C[C@H]2N1Cc1ccc(-c2ccccc2)cc1,16.9
21,CCOc1ccc(S(=O)(=O)N(C)c2ccc(OCC(=O)NCc3ccc(C(=O)OC)cc3)cc2)cc1,-1.81
22,COc1ccccc1CCC(=O)OCC(=O)NC1CC1,5.74

row,SMILES,"hERG current change (%, negative = inhibition) at 1uM [%]"
1,O=S(=O)(c1ccc(Oc2ccc3oc4ccccc4c3c2)nc1)N1CCCC1,-10.9
2,CC1CCN(C(=O)C2CCCN2S(=O)(=O)c2ccc(Cl)cc2)CC1 (stereo not shown),10.4
3,COC(=O)Nc1ncc(CN2C(=O)c3ccccc3C2=O)s1,-4.83
4,O=C(O)C(F)(F)F.O=C1C(Cc2ccccc2)Nc2ncnc(N3CCc4ccccc4C3)c2N1Cc1ccc(Cl)cc1 (stereo not shown),21.2
5,CC(C)(O)C#Cc1ccc(CN2CCN(Cc3ccsc3)C(CCO)C2)cc1 (stereo not shown),1.26
6,COC(=O)c1cc2occc2n1Cc1nc(-c2ccccc2F)oc1C,7.08
7,Cc1cc(C(=O)N2CCN(S(C)(=O)=O)CC2)sc1-c1ccccc1,11.2
8,O=C(COC(=O)c1ccc(Br)cc1)NCc1ccccc1,13.8
9,CCOC(=O)c1ccc(NC(=O)C23CCC(C)(C(=O)O2)C3(C)C)cc1 (stereo not shown),4.42
10,Cc1cc(C(=O)O)ccc1-n1c(C)ccc1C,7.86
11,CC/C(=N/NC(=O)CNc1ccc(Cl)cc1C)c1ccccc1,12.2
12,Cc1cccc2cc(C(c3nnnn3Cc3ccccc3)N3CCN(c4ccccc4)CC3)c(=O)[nH]c12 (stereo not shown),-0.284
13,COc1ccc(C2(c3ccc(OC)cc3)NC(=O)N(CC(=O)Nc3ccc(N4CCOCC4)cc3)C2=O)cc1,-3.75
14,O=C(CSc1nc(N2CCCCC2)nc(N2CCCCC2)n1)c1ccccc1,-1.64
15,CN(CC(=O)N1CCN(Cc2ccccc2)CC1)S(=O)(=O)c1ccc(Br)cc1,-3.88
16,COc1ccc(-c2csc(N3C(=N)SCC3=O)n2)cc1,-7.71
17,CCCCNC(=O)CSc1nc2ccccc2c(=O)n1CCNC(C)=O,-0.746
18,C=CCSc1nnc(-c2cc3c(C(F)(F)F)nn(C)c3s2)n1C,13.6
19,CN(CCCCCCN(C)Cc1ccccc1O)Cc1ccccc1O.O=C(O)C(=O)O,12.8
20,O=C(C1CCN(C2CCN(C/C(Cl)=C/c3ccccc3)CC2)CC1)N1CCOCC1,-33.8
21,CN(C)c1ccc(CNn2cnnc2SCC(=O)NC(C)(C)C)cc1,9.77
22,O=C(CNC(=O)c1ccc(Cl)c([N+](=O)[O-])c1)NCC1CCCO1 (stereo not shown),10
